In the supplement of paper PMC4967469:
The IC50 comes from the fitted curve, where viability falls to half of the control; a fit beyond the top or the lowest dose is shown as a bound at that dose. For AUC the same curve is integrated over the 256-fold range of doses and scaled to a fraction; the more sensitive the line, the further below 1. Where the top dose is marked as inferred, it was derived from the fitted curves, not read from the paper.

Compound: O=C1NC(=NCc2cccs2)S/C1=C\c1ccc2ncccc2c1 [RO-3306]
Assay: Viability of human cancer cell lines after 72 h of drug (GDSC screen)
Settings: top dose 5 µM; top dose inferred
Protocol: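 Human cancer cell lines in 384-well plates, medium with 10% serum, drug for 72 h over a 256-fold dose range (nine 2-fold or five 4-fold steps up to the top dose). Adherent lines were fixed and stained with the nucleic acid dye Syto60, suspension lines read with resazurin; signal relative to control wells, capped at 0 and 100%. One two-parameter sigmoid per drug and line, fitted in a mixed model over all curves with the slope shared within a line.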

Going from Saos-2 (osteosarcoma, adherent) to SiHa (cervix, adherent), the AUC falls from 0.978 to 0.942.

Going from T47D (breast, adherent) to T84 (large intestine, adherent), the AUC rises from 0.952 to 0.989.

Going from T98G (glioma, adherent) to T-T (oesophagus, adherent), the AUC rises from 0.741 to 0.978.

Compared with TC-71 (Ewing sarcoma, adherent), TC-YIK (cervix, suspension) is lower in AUC: 0.99 for the first, 0.988 for the second.

Compared with TCCSUP (bladder, adherent), TE-1 (oesophagus, adherent) is lower in AUC: 0.983 for the first, 0.909 for the second.

Going from TE-4 (oesophagus, adherent) to TE-5 (oesophagus, adherent), the AUC rises from 0.944 to 0.973.

Going from TE-6 (oesophagus, adherent) to TE-8 (oesophagus, adherent), the AUC rises from 0.894 to 0.957.

Compared with TE-9 (oesophagus, adherent), TE-10 (oesophagus, adherent) is higher in AUC: 0.964 for the first, 0.986 for the second.

Compared with TE-11 (oesophagus, adherent), TE-12 (oesophagus, suspension) is higher in AUC: 0.947 for the first, 0.979 for the second.

Compared with TE-15 (oesophagus, suspension), TGBC1TKB (biliary tract, adherent) is lower in AUC: 0.981 for the first, 0.961 for the second.

Going from TGBC11TKB (stomach, adherent) to TGW (neuroblastoma, adherent), the AUC falls from 0.992 to 0.965.

Going from “THP-1 (acute myeloid leukaemia, suspension)” to TK10 (kidney, adherent), the AUC falls from 0.991 to 0.97.

First: TK (B-cell lymphoma, suspension)
Second: TMK-1 (stomach, adherent)
The AUC of the first is higher: 0.977 for the first, 0.972 for the second.

Going from TOV-21G (ovary, adherent) to TOV-112D (ovary, adherent), the AUC rises from 0.922 to 0.943.

Going from TT2609-C02 (thyroid, adherent) to TT (thyroid, adherent), the AUC rises from 0.95 to 0.978.

Compared with TUR (B-cell lymphoma, suspension), TYK-nu (ovary, adherent) is lower in AUC: 0.987 for the first, 0.962 for the second.

Compared with U031 (kidney, adherent), U-87-MG (glioma, adherent) is higher in AUC: 0.936 for the first, 0.981 for the second.

Going from U-118-MG (glioma, adherent) to U-266 (myeloma, semi-adherent), the AUC falls from 0.984 to 0.972.

U-698-M (B-cell leukaemia, suspension) and UACC-62 (melanoma, adherent) are the same in AUC: 0.955 for the first, 0.955 for the second.

UACC-257 (melanoma, adherent) and UACC-893 (breast, adherent) are the same in AUC: 0.979 for the first, 0.979 for the second.

Compared with UWB1.289 (ovary, adherent), VA-ES-BJ (soft tissue, adherent) is lower in AUC: 0.962 for the first, 0.959 for the second.

Compared with VAL (B-cell lymphoma, suspension), VCaP (prostate, adherent) is lower in AUC: 0.979 for the first, 0.975 for the second.

Going from VM-CUB-1 (bladder, adherent) to “VMRC-LCD (lung adenocarcinoma, adherent)”, the AUC rises from 0.916 to 0.949.

Going from VMRC-RCZ (kidney, adherent) to WIL2-NS (lymphoid neoplasm, suspension), the AUC rises from 0.972 to 0.987.

Compared with WM35 (melanoma, adherent), WM793B (melanoma, adherent) is higher in AUC: 0.885 for the first, 0.979 for the second.

Compared with WM1552C (melanoma, adherent), WM-115 (melanoma, adherent) is lower in AUC: 0.988 for the first, 0.957 for the second.

Going from WSU-DLCL2 (B-cell lymphoma, suspension) to WSU-NHL (lymphoid neoplasm, suspension), the AUC falls from 0.99 to 0.983.

Going from YAPC (pancreas, adherent) to YH-13 (glioma, adherent), the AUC falls from 0.982 to 0.88.

Going from YKG-1 (glioma, adherent) to YT (lymphoid neoplasm, suspension), the AUC rises from 0.941 to 0.974.

First: ZR-75-30 (breast, adherent)
Second: huH-1 (liver, adherent)
The AUC of the first is higher: 0.967 for the first, 0.951 for the second.

With no-11 (glioma, adherent) the AUC was 0.982.

Saos-2 (osteosarcoma, adherent) and SiHa (cervix, adherent) cannot be ordered by IC50: over 5 µM for the first, over 5 µM for the second.

T47D (breast, adherent) and T84 (large intestine, adherent) cannot be ordered by IC50: over 5 µM for the first, over 5 µM for the second.

Compared with T98G (glioma, adherent), T-T (oesophagus, adherent) is higher in IC50: 1.44 µM for the first, over 5 µM for the second.

TC-71 (Ewing sarcoma, adherent) and TC-YIK (cervix, suspension) cannot be ordered by IC50: over 5 µM for the first, over 5 µM for the second.

TCCSUP (bladder, adherent) and TE-1 (oesophagus, adherent) cannot be ordered by IC50: over 5 µM for the first, over 5 µM for the second.

TE-4 (oesophagus, adherent) and TE-5 (oesophagus, adherent) cannot be ordered by IC50: over 5 µM for the first, over 5 µM for the second.

TE-6 (oesophagus, adherent) and TE-8 (oesophagus, adherent) cannot be ordered by IC50: over 5 µM for the first, over 5 µM for the second.

TE-9 (oesophagus, adherent) and TE-10 (oesophagus, adherent) cannot be ordered by IC50: over 5 µM for the first, over 5 µM for the second.

TE-11 (oesophagus, adherent) and TE-12 (oesophagus, suspension) cannot be ordered by IC50: over 5 µM for the first, over 5 µM for the second.

TE-15 (oesophagus, suspension) and TGBC1TKB (biliary tract, adherent) cannot be ordered by IC50: over 5 µM for the first, over 5 µM for the second.

TGBC11TKB (stomach, adherent) and TGW (neuroblastoma, adherent) cannot be ordered by IC50: over 5 µM for the first, over 5 µM for the second.

“THP-1 (acute myeloid leukaemia, suspension)” and TK10 (kidney, adherent) cannot be ordered by IC50: over 5 µM for the first, over 5 µM for the second.

TK (B-cell lymphoma, suspension) and TMK-1 (stomach, adherent) cannot be ordered by IC50: over 5 µM for the first, over 5 µM for the second.

TOV-21G (ovary, adherent) and TOV-112D (ovary, adherent) cannot be ordered by IC50: over 5 µM for the first, over 5 µM for the second.

TT2609-C02 (thyroid, adherent) and TT (thyroid, adherent) cannot be ordered by IC50: over 5 µM for the first, over 5 µM for the second.

TUR (B-cell lymphoma, suspension) and TYK-nu (ovary, adherent) cannot be ordered by IC50: over 5 µM for the first, over 5 µM for the second.

U031 (kidney, adherent) and U-87-MG (glioma, adherent) cannot be ordered by IC50: over 5 µM for the first, over 5 µM for the second.

U-118-MG (glioma, adherent) and U-266 (myeloma, semi-adherent) cannot be ordered by IC50: over 5 µM for the first, over 5 µM for the second.

U-698-M (B-cell leukaemia, suspension) and UACC-62 (melanoma, adherent) cannot be ordered by IC50: over 5 µM for the first, over 5 µM for the second.

UACC-257 (melanoma, adherent) and UACC-893 (breast, adherent) cannot be ordered by IC50: over 5 µM for the first, over 5 µM for the second.

UWB1.289 (ovary, adherent) and VA-ES-BJ (soft tissue, adherent) cannot be ordered by IC50: over 5 µM for the first, over 5 µM for the second.

VAL (B-cell lymphoma, suspension) and VCaP (prostate, adherent) cannot be ordered by IC50: over 5 µM for the first, over 5 µM for the second.

VM-CUB-1 (bladder, adherent) and “VMRC-LCD (lung adenocarcinoma, adherent)” cannot be ordered by IC50: over 5 µM for the first, over 5 µM for the second.

VMRC-RCZ (kidney, adherent) and WIL2-NS (lymphoid neoplasm, suspension) cannot be ordered by IC50: over 5 µM for the first, over 5 µM for the second.

WM35 (melanoma, adherent) and WM793B (melanoma, adherent) cannot be ordered by IC50: over 5 µM for the first, over 5 µM for the second.

WM1552C (melanoma, adherent) and WM-115 (melanoma, adherent) cannot be ordered by IC50: over 5 µM for the first, over 5 µM for the second.

WSU-DLCL2 (B-cell lymphoma, suspension) and WSU-NHL (lymphoid neoplasm, suspension) cannot be ordered by IC50: over 5 µM for the first, over 5 µM for the second.

YAPC (pancreas, adherent) and YH-13 (glioma, adherent) cannot be ordered by IC50: over 5 µM for the first, over 5 µM for the second.

YKG-1 (glioma, adherent) and YT (lymphoid neoplasm, suspension) cannot be ordered by IC50: over 5 µM for the first, over 5 µM for the second.

ZR-75-30 (breast, adherent) and huH-1 (liver, adherent) cannot be ordered by IC50: over 5 µM for the first, over 5 µM for the second.

In the case of no-11 (glioma, adherent), the IC50 is reported as over 5 µM.
